These are yes or no findings as the source states them, for the method shown. For some assays here: In cells and extracts the contact can be indirect. Some binding calls cover weakened binding; strength is not graded here. Blank lines part the entries; values can stand above or below the binder they belong to.
Experiments:
[1] = target: Knl1c:Mis12c^Mtw1c complex K^HB-RWDM (Knl1^Spc105_HB-RWD, ZWINT^Kre28, Dsn1, Mis12^Mtw1, Nnf1, Nsl1) (S. cerevisiae) (UniProt P53148+Q04431+P40568+P39731+P47149+Q12143); assay: ITC; peptide titrated into the complex in the cell; 20°C; 25 mM HEPES pH 7.5, 100 mM NaCl, 0.5 mM TCEP; both purified
[2] = target: T1, K^RWD: Knl1c composed of Knl1^Spc105_RWD (residues 710–917) and ZWINT^Kre28_RWD (residues 268–385) (S. cerevisiae) (UniProt P53148+Q04431); assay: pull-down; K^RWD (ZWINT^Kre28_RWD with C-terminal Twin-Strep tag as bait) coexpressed with Mis12c^Mtw1c (Dsn1^Δ1–278) in High-5 cells; cleared lysate on Strep-Tactin resin, 50 mM HEPES pH 8.0, 200 mM NaCl, 5% glycerol, 4°C; eluted with d-desthiobiotin; SDS-PAGE
T1 sequence 1: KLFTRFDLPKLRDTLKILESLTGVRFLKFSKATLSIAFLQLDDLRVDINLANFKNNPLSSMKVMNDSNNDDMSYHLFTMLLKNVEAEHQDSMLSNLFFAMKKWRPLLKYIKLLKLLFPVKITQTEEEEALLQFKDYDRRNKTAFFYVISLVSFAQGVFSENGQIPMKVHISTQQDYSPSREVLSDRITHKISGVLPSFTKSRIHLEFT
T1 sequence 2: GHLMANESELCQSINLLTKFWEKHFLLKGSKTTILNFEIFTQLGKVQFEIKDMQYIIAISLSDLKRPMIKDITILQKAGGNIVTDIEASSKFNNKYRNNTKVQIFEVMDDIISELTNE

[3] = target: T2, Dsn1 (subunit of Mis12c^Mtw1c, as in K^HB-RWDM) (S. cerevisiae) (UniProt P40568); assay: cross-linking; sulfo-SDA (2 mM), 365-nm UV for 10 s, on the K^HB-RWDM complex (0.5 mg/ml); mass spectrometry (CL-MS); both purified
T2 sequence: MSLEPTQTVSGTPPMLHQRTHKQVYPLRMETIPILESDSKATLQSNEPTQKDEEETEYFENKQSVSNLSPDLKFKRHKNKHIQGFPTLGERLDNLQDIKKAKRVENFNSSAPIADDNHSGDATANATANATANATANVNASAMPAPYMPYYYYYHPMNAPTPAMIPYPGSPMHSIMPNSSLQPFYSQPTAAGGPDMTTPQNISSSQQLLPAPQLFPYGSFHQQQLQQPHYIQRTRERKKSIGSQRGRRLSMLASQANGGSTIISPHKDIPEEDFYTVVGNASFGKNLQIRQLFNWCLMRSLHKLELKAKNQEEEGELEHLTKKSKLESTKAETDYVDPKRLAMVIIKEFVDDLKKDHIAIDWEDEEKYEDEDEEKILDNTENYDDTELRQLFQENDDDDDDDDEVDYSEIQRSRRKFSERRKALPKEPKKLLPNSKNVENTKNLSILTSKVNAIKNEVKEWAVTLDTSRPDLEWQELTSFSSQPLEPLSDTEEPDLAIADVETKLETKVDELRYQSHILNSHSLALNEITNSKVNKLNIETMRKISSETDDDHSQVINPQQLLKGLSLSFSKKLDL

[4] = target: T3, Nsl1 (subunit of Mis12c^Mtw1c, as in K^HB-RWDM) (S. cerevisiae) (UniProt Q12143); assay: as above
T3 sequence: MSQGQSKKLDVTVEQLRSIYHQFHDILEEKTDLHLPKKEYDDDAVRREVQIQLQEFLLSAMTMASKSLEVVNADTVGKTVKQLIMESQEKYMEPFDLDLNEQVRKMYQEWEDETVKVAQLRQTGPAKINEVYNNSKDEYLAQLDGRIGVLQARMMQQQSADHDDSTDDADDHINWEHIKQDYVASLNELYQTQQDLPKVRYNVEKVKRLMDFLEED

[5] = target: Head 1–deleted Knl1c:Mis12c^Mtw1c complex K^HB-RWDM^Dsn1Δ257_Δhead1 (Knl1^Spc105 1–444, Dsn1 1–257, Mis12^Mtw1 1–106 and Nnf1 1–104 deleted) (S. cerevisiae) (UniProt P53148+Q04431+P40568+P39731+P47149+Q12143); assay: ITC; peptide titrated into the complex in the cell; 25°C; 25 mM HEPES pH 7.5, 100 mM NaCl, 1 mM TCEP; single-site model; both purified

B1: CENP-U^Ame1_1–33 peptide (residues 1–33 of CENP-U^Ame1) (peptide)
peptide: MDRDTKLAFRLRGSHSRRTDDIDDDVIVFKTPNW
modifications: C-terminal amide
- binding [1]: no binding (tested: 16 μM K^HB-RWDM, 400 μM CENP-U^Ame1_1–33)

- binding [2]: binds
B2: Mis12c^Mtw1c_Mis12ΔC with Dsn1^Δ1–278 (Mis12^Mtw1_Δ272-C), coexpressed with K^RWD (complex, UniProt P40568 279-576; Q12143 1-216; P39731 1-271; P47149 1-201)
chain 1: GNASFGKNLQIRQLFNWCLMRSLHKLELKAKNQEEEGELEHLTKKSKLESTKAETDYVDPKRLAMVIIKEFVDDLKKDHIAIDWEDEEKYEDEDEEKILDNTENYDDTELRQLFQENDDDDDDDDEVDYSEIQRSRRKFSERRKALPKEPKKLLPNSKNVENTKNLSILTSKVNAIKNEVKEWAVTLDTSRPDLEWQELTSFSSQPLEPLSDTEEPDLAIADVETKLETKVDELRYQSHILNSHSLALNEITNSKVNKLNIETMRKISSETDDDHSQVINPQQLLKGLSLSFSKKLDL
chain 2: MSQGQSKKLDVTVEQLRSIYHQFHDILEEKTDLHLPKKEYDDDAVRREVQIQLQEFLLSAMTMASKSLEVVNADTVGKTVKQLIMESQEKYMEPFDLDLNEQVRKMYQEWEDETVKVAQLRQTGPAKINEVYNNSKDEYLAQLDGRIGVLQARMMQQQSADHDDSTDDADDHINWEHIKQDYVASLNELYQTQQDLPKVRYNVEKVKRLMDFLEED
chain 3: MSAPTMRSTSILTEHLGYPPISLVDDIINAVNEIMYKCTAAMEKYLLSKSKIGEEDYGEEIKSGVAKLESLLENSVDKNFDKLELYVLRNVLRIPEEYLDANVFRLENQKDLVIVDENELKKSEEKLREKVNDVELAFKKNEMLLKRVTKVKRLLFTIRGFKQKLNELLKCKDDVQLQKILESLKPIDDTMTLLTDSLRKLYVDSESTSSTEEVEALLQRLKTNGKQNNKDFRTRYIDIRTNNVLRKLGLLGDKEDEKQSAKPDARTQAGD
chain 4: MVNSHGIRYIRLKQVFNRALDQSISKLQSWDKVSSCFPQYVNSKQGAINVANCQRQLTEFWTELCQREFKEIMEERNVEQKLNELDELILEAKERYTDRDQDEVNKGPAIDELSSKELVECHLYSQRMHAIHEIDERLAKVNEMNDQLAQELKDLETQVEVEKNEIGKMYDEYLGSHTDQPANVLLVQSLNDMVLELKENY

- binding [3]: binds
B3: Mis12^Mtw1 (subunit of Mis12c^Mtw1c, as in K^HB-RWDM) (protein, UniProt P39731 1-289)
chain: MSAPTMRSTSILTEHLGYPPISLVDDIINAVNEIMYKCTAAMEKYLLSKSKIGEEDYGEEIKSGVAKLESLLENSVDKNFDKLELYVLRNVLRIPEEYLDANVFRLENQKDLVIVDENELKKSEEKLREKVNDVELAFKKNEMLLKRVTKVKRLLFTIRGFKQKLNELLKCKDDVQLQKILESLKPIDDTMTLLTDSLRKLYVDSESTSSTEEVEALLQRLKTNGKQNNKDFRTRYIDIRTNNVLRKLGLLGDKEDEKQSAKPDARTQAGDIVSIDIEEPQLDLLDDVL

- binding [2]: binds
B4: Mis12c^Mtw1c with Dsn1^Δ1–278 (wild-type Mis12^Mtw1 and Nnf1), coexpressed with K^RWD (complex, UniProt P40568 279-576; Q12143 1-216; P39731 1-289; P47149 1-201)
chain 1: GNASFGKNLQIRQLFNWCLMRSLHKLELKAKNQEEEGELEHLTKKSKLESTKAETDYVDPKRLAMVIIKEFVDDLKKDHIAIDWEDEEKYEDEDEEKILDNTENYDDTELRQLFQENDDDDDDDDEVDYSEIQRSRRKFSERRKALPKEPKKLLPNSKNVENTKNLSILTSKVNAIKNEVKEWAVTLDTSRPDLEWQELTSFSSQPLEPLSDTEEPDLAIADVETKLETKVDELRYQSHILNSHSLALNEITNSKVNKLNIETMRKISSETDDDHSQVINPQQLLKGLSLSFSKKLDL
chain 2: MSQGQSKKLDVTVEQLRSIYHQFHDILEEKTDLHLPKKEYDDDAVRREVQIQLQEFLLSAMTMASKSLEVVNADTVGKTVKQLIMESQEKYMEPFDLDLNEQVRKMYQEWEDETVKVAQLRQTGPAKINEVYNNSKDEYLAQLDGRIGVLQARMMQQQSADHDDSTDDADDHINWEHIKQDYVASLNELYQTQQDLPKVRYNVEKVKRLMDFLEED
chain 3: MSAPTMRSTSILTEHLGYPPISLVDDIINAVNEIMYKCTAAMEKYLLSKSKIGEEDYGEEIKSGVAKLESLLENSVDKNFDKLELYVLRNVLRIPEEYLDANVFRLENQKDLVIVDENELKKSEEKLREKVNDVELAFKKNEMLLKRVTKVKRLLFTIRGFKQKLNELLKCKDDVQLQKILESLKPIDDTMTLLTDSLRKLYVDSESTSSTEEVEALLQRLKTNGKQNNKDFRTRYIDIRTNNVLRKLGLLGDKEDEKQSAKPDARTQAGDIVSIDIEEPQLDLLDDVL
chain 4: MVNSHGIRYIRLKQVFNRALDQSISKLQSWDKVSSCFPQYVNSKQGAINVANCQRQLTEFWTELCQREFKEIMEERNVEQKLNELDELILEAKERYTDRDQDEVNKGPAIDELSSKELVECHLYSQRMHAIHEIDERLAKVNEMNDQLAQELKDLETQVEVEKNEIGKMYDEYLGSHTDQPANVLLVQSLNDMVLELKENY

- binding [2]: binds
B5: Mis12c^Mtw1c_Nnf1ΔC with Dsn1^Δ1–278 (Nnf1^Δ180-C), coexpressed with K^RWD (complex, UniProt P40568 279-576; Q12143 1-216; P39731 1-289; P47149 1-179)
chain 1: GNASFGKNLQIRQLFNWCLMRSLHKLELKAKNQEEEGELEHLTKKSKLESTKAETDYVDPKRLAMVIIKEFVDDLKKDHIAIDWEDEEKYEDEDEEKILDNTENYDDTELRQLFQENDDDDDDDDEVDYSEIQRSRRKFSERRKALPKEPKKLLPNSKNVENTKNLSILTSKVNAIKNEVKEWAVTLDTSRPDLEWQELTSFSSQPLEPLSDTEEPDLAIADVETKLETKVDELRYQSHILNSHSLALNEITNSKVNKLNIETMRKISSETDDDHSQVINPQQLLKGLSLSFSKKLDL
chain 2: MSQGQSKKLDVTVEQLRSIYHQFHDILEEKTDLHLPKKEYDDDAVRREVQIQLQEFLLSAMTMASKSLEVVNADTVGKTVKQLIMESQEKYMEPFDLDLNEQVRKMYQEWEDETVKVAQLRQTGPAKINEVYNNSKDEYLAQLDGRIGVLQARMMQQQSADHDDSTDDADDHINWEHIKQDYVASLNELYQTQQDLPKVRYNVEKVKRLMDFLEED
chain 3: MSAPTMRSTSILTEHLGYPPISLVDDIINAVNEIMYKCTAAMEKYLLSKSKIGEEDYGEEIKSGVAKLESLLENSVDKNFDKLELYVLRNVLRIPEEYLDANVFRLENQKDLVIVDENELKKSEEKLREKVNDVELAFKKNEMLLKRVTKVKRLLFTIRGFKQKLNELLKCKDDVQLQKILESLKPIDDTMTLLTDSLRKLYVDSESTSSTEEVEALLQRLKTNGKQNNKDFRTRYIDIRTNNVLRKLGLLGDKEDEKQSAKPDARTQAGDIVSIDIEEPQLDLLDDVL
chain 4: MVNSHGIRYIRLKQVFNRALDQSISKLQSWDKVSSCFPQYVNSKQGAINVANCQRQLTEFWTELCQREFKEIMEERNVEQKLNELDELILEAKERYTDRDQDEVNKGPAIDELSSKELVECHLYSQRMHAIHEIDERLAKVNEMNDQLAQELKDLETQVEVEKNEIGKMYDEYLGSHTD

- binding [4]: binds
B6: Dsn1 (subunit of Mis12c^Mtw1c, as in K^HB-RWDM) (protein, UniProt P40568 1-576)
chain: MSLEPTQTVSGTPPMLHQRTHKQVYPLRMETIPILESDSKATLQSNEPTQKDEEETEYFENKQSVSNLSPDLKFKRHKNKHIQGFPTLGERLDNLQDIKKAKRVENFNSSAPIADDNHSGDATANATANATANATANVNASAMPAPYMPYYYYYHPMNAPTPAMIPYPGSPMHSIMPNSSLQPFYSQPTAAGGPDMTTPQNISSSQQLLPAPQLFPYGSFHQQQLQQPHYIQRTRERKKSIGSQRGRRLSMLASQANGGSTIISPHKDIPEEDFYTVVGNASFGKNLQIRQLFNWCLMRSLHKLELKAKNQEEEGELEHLTKKSKLESTKAETDYVDPKRLAMVIIKEFVDDLKKDHIAIDWEDEEKYEDEDEEKILDNTENYDDTELRQLFQENDDDDDDDDEVDYSEIQRSRRKFSERRKALPKEPKKLLPNSKNVENTKNLSILTSKVNAIKNEVKEWAVTLDTSRPDLEWQELTSFSSQPLEPLSDTEEPDLAIADVETKLETKVDELRYQSHILNSHSLALNEITNSKVNKLNIETMRKISSETDDDHSQVINPQQLLKGLSLSFSKKLDL

- binding [5]: no binding
B7: Dsn1^228–254 peptide (peptide)
peptide: PHYIQRTRERKKSIGSQRGRRLSMLASGSAW
modifications: N-terminal acetylation; C-terminal amidation

- binding [1]: no binding
B8: CENP-C^Mif2_1–38 peptide (N-terminal 38 residues of CENP-C^Mif2) (peptide)
peptide: MDYMKLGLKSRKTGIDVKQDIPKDEYSMENIDDFFKDD
modifications: C-terminal amide

— PMC13065467, “Assembly and phosphoregulatory mechanisms of the budding yeast outer kinetochore KMN complex” (The Journal of Cell Biology, 2026)
